Assay results reported in PubChem BioAssay AID760 (NMMLSC, 2007).
About 360 (0.19%) of roughly 190,000 compounds were called active. The inconclusive results got no clear call from the source; some entries with a clear call stand among them for comparison.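 Rule for the calls: active = GTP binding activity at least 20 points away from 100%, either lowered or raised; inconclusive = signal likely due to the compound's own green fluorescence; inactive = the rest.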

Target: Ras-related protein Rab-2A (Canis lupus familiaris) (UniProt P61105)
Assay: Rab2 wt fluorescent GTP binding changes, either direction – biochemical, dog, bead-based flow cytometry, multiplex, primary screen (AID 760);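 note: 0% = beads with excess unlabeled GTP and 100% = no-compound control corrected for plate trend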
Settings: GST-Rab2 wt beads, Bodipy-GTP binding, at 10 µM

SMILES	GTP binding activity
CCCNc1c(F)c(F)c2c(C)c3ccccc3nc2c1F	inconclusive: 101%
CSc1nc2nccc(-c3ccc(-c4ccccc4)cc3)n2n1	inconclusive: 72%
COc1ccc(CCNC(=O)CSc2nc(-c3ccc(OC)c(OC)c3)ccc2C#N)cc1	inconclusive: 95%
O=C(c1ccco1)N1CCCN(Cc2nc(-c3cccs3)no2)CC1	inconclusive: 94%
COc1cc(OC)cc(C(=O)NNC(=S)Nc2ccc(S(N)(=O)=O)cc2)c1	inconclusive: 92%
CCc1ccc(C2C(C#N)=C(N)N(N3CCOCC3)C3=C2C(=O)CC(C)(C)C3)s1 (stereo not given)	inconclusive: 96%
Cc1cc(C(=O)Oc2ccccc2C(=O)O)c(C)o1	inactive: 116%
CCCn1c(=O)c(C(=O)Nc2ncccc2C)c(O)c2ccccc21	inconclusive: 87%
OC(CNCCc1ccc(Cl)cc1)COc1ccc2ccccc2c1 (stereo not given)	active: 78%
Cc1ccc(Nc2ccc(C(F)(F)F)cc2[N+](=O)[O-])cc1	inconclusive: 93%
Cc1ccc(SCC(=O)NC(=O)Nc2ccc3c(c2)OCCO3)cc1C	inconclusive: 89%
CCCCC(=O)Nc1cc(N(C)C)nc2ccccc12	inconclusive: 92%
Cc1ccc(C)c(NC(=S)NC(NC(=O)N(C)C)C(Cl)(Cl)Cl)c1 (stereo not given)	inconclusive: 100%
O=C(NCc1ccco1)c1cc2ccccc2o1	inconclusive: 91%
COc1ccc(-c2coc3cc4oc(=O)cc(C)c4cc23)cc1F	inconclusive: 96%
Cc1ccccc1Cn1cc(NC(=O)c2noc3c2CC(C(C)(C)C)CC3)cn1 (stereo not given)	inconclusive: 115%
Cc1ccc(NC(=O)CCOc2ccccc2)cc1S(=O)(=O)Nc1ccccc1Cl	inconclusive: 92%
COCCNC(=O)c1cc2oc3ccccc3c2n1C	inactive: 100%
Nc1c(C(=O)NCc2ccco2)c2nc3ccccc3nc2n1CCc1ccc(F)cc1	inconclusive: 102%
O=c1n(Cc2ccc(Cl)cc2)c2sc3c(c2c2ncnn12)CCCC3	inconclusive: 73%

SMILES	GTP binding activity
CCc1ccc(N(C)S(=O)(=O)c2ccc3[nH]cc(C(=O)NCCN4CCOCC4)c(=O)c3c2)cc1	inconclusive: 103%
COC(=O)c1oc2ccccc2c1NC(=O)c1ccccc1O	inconclusive: 90%
CCOC(=O)c1cnc2c(C#N)cnn2c1N	active: 73%
CCOc1ccc2cc(/C=C/C(=O)c3ccco3)c(Cl)nc2c1	inconclusive: 113%
COc1ccc(NC(=O)c2cc(-c3ccc(C)o3)nc3ccccc23)cc1OC	inconclusive: 94%
O=C(c1ccco1)N1N=C2CCCCCC2C1(O)C(F)(F)F (stereo not given)	inactive: 97%
COc1cccc(C(=O)Nc2cccc(C(=O)NCC(C)C)c2)c1	inactive: 99%
Cc1ccc(C2=NN(S(C)(=O)=O)C(c3ccc4c(c3)OCO4)C2)cc1 (stereo not given)	inconclusive: 117%
Cc1nc(-c2ccccc2)sc1C(=O)NN	active: 120% [activator]
Cc1ccc(/C=C/C(=O)OCC(=O)NC(C)C)o1	inactive: 98%
Cc1cccc(NC(=O)N2CCCC2C(=O)Nc2ccccc2)c1 (stereo not given)	inconclusive: 89%
Fc1ccc(Nc2nc3ccccc3s2)cc1	inconclusive: 92%
COC(=O)C1=C(C)Nc2c(c(=O)n(C)c(=O)n2C)C1c1ccc(C)cc1 (stereo not given)	inconclusive: 91%
O=C1CCCN1CCCNc1ncnc2sccc12	inactive: 96%
Cc1nn(CCCC(=O)N2CCN(c3ccc(F)cc3)CC2)c(C)c1[N+](=O)[O-]	inconclusive: 95%
O=C(NC1CCCCC1)C(Cc1ccccc1)N1C(=O)C2C3CCC(C3)C2C1=O (stereo not given)	inconclusive: 109%
COC(=O)c1ccc2nc(Nc3nc4ccc(F)cc4s3)sc2c1	inconclusive: 90%
N#C/C(C(=S)Nc1ccccc1)=C1/NN=C(N2CCOCC2)N1c1ccccc1	inactive: 90%
Cc1ccc(-c2csc(-c3c[nH]c4ccccc34)n2)c(C)c1	inconclusive: 93%
O=C(COc1ccc(Cl)cc1[N+](=O)[O-])N1CCCCCC1	inactive: 99%

SMILES	GTP binding activity
O=c1c2ccccc2oc2nc3n(c(=O)c12)CCCS3	inconclusive: 84%
COc1cccc(-n2c([S-])c(C(=O)Nc3ccc(C(F)(F)F)cc3)[n+]3ccccc23)c1	inactive: 94%
COc1ccc(-c2nc(C)ncc2-c2csc(C)n2)c(O)c1	inconclusive: 103%
CN(Cc1ccc(-n2cccn2)cc1)Cc1nc(-c2cnccn2)no1	inconclusive: 102%
C=C(C)c1cccc(C(C)(C)NC(=O)Nc2ccc3[nH]c(=O)[nH]c3c2)c1	inconclusive: 104%
Cc1cc2nc3c(=O)[nH]c(=O)[nH]c3nc2c([N+](=O)[O-])c1N	inconclusive: 63%
COc1ccc2cc3cc(C(=O)NCc4ccccn4)oc3nc2c1	inconclusive: 93%
CN(C)S(=O)(=O)c1ccc(N2CCCC2)c(C(=O)N2CCN(c3ccc([N+](=O)[O-])cc3)CC2)c1	inconclusive: 95%
C#CC1(NC(=O)N(C)C)CCCCC1	inconclusive: 98%
O=C(CCC(=O)c1ccc(Oc2ccccc2)cc1)Nc1cccc(Cl)c1Cl	inconclusive: 90%
CCOC(=O)C1(Cc2ccccc2)CCCN(Cc2ccccn2)C1 (stereo not given)	inconclusive: 93%
COc1cccc(-n2c(Cc3cc(=O)[nH]c(=O)[nH]3)nnc2SCc2cccc(C(F)(F)F)c2)c1	inactive: 99%
COc1cc(NC(=S)NCCc2ccc(S(N)(=O)=O)cc2)c(OC)cc1Cl	inactive: 95%
O=C(NCC1CCCO1)C1CC(=O)N(C2CCCCCC2)C1 (stereo not given)	inconclusive: 105%
CCCc1nc2ccccc2n1Cc1ccccc1OC	inactive: 96%
Cc1ccc(Nc2nc(CSc3nnc(-c4ccc(F)cc4)n3C)cs2)cc1	inactive: 97%
COc1ccccc1N=c1oc2c(OC)cccc2cc1C(=O)NCc1ccco1	inconclusive: 91%
O=C(Nc1ccc(N2CCOCC2)c(Cl)c1)c1ncn[nH]1	inconclusive: 115%
Cc1ccc(C(=O)/C=C/c2ccc(-c3ccc(C)cc3)o2)cc1	inconclusive: 89%
Cc1ccc(C)c(CSCC(=O)NCc2cccs2)c1	inconclusive: 95%
